The list shows a part of the results. The data scatter; read single values as rough.

The target of the first test is USP7_MATH-TRAF__Q93009_53_206. The test is described as follows: mutation enrichment score (mutant vs wild-type peptide binding to bait); baits are purified protein domains named by gene / domain / UniProt id / residues; peptides come from disordered regions of human proteins; higher = mutation enhances binding relative to wild type. The conditions noted are these: number of wild-type / mutant comparisons summed (bounds the score): 15; paper call: enhanced; wild-type window: ….
Chain of USP7_MATH-TRAF__Q93009_53_206 (chain, as listed by the source): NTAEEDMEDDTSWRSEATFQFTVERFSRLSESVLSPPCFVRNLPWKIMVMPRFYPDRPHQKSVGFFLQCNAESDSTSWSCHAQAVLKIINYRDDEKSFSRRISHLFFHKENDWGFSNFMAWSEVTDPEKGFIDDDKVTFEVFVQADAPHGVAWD
Regarding CCCACHSKDFTNNDMNQGTSCHFNYPSTPPSERNGTSSTCQ [R106C R106C], the mutation enrichment score came to 5.

As to PAGSVSSTPLSTPCSSVPSSSSFSPTEQKTHLEDLYWMASN [P71S P71S], the mutation enrichment score was found to be 7.

With PTDRAEVEKDSGHGSTSVDSQGFSIPDTGSHCSSEYAASSP [E504Q E504Q], the mutation enrichment score turned out to be 5.

The same test, now with this note: number of wild-type / mutant comparisons summed (bounds the score): 10; paper call: no_effect; wild-type window: ….
On to QYTHTGLLPQTMLITDTTNLTALASLTPTKQVFTSDTEASS [S531T S531T], for which the mutation enrichment score was 3.

Consider DEDEDGDDLLHHHHGSHCSSLGDPAEYNLRSRTVLCGTCGQ [S573L S573L], for which the mutation enrichment score is -5.

Turning to KPPCFRESASPSPEPWTPGHRACSTSSAAIMATATSRNCDK [G313R G313R], the mutation enrichment score was -1.2.

With KKTSPAREVSSESGTSGQFTTPSSTSVPTIASSSAPVSIWS [P133T P133T], the mutation enrichment score came to 1.5.

With HNMPKEEEEEEKEGRHLDMVKCVLPSSSHAACSHGLVNSHL [Q705K Q705K], the mutation enrichment score is 0.045.

As for WEGRYGVQEQVTISGAAGAASSVSASASYAAEAVATGAKEV [A396S A396S], the mutation enrichment score came out at 4.

Regarding GALLPREQFAAPLGRPVGTSFSATYPAYVSPDVAQSWTAGP [Y138F Y138F], the mutation enrichment score was -3.

For the molecule PAFSEDSESHGSSSASSPLSVEGRPSPLEAPNERQRELAVK [A1434V A1434V], the mutation enrichment score is 4.

For the molecule SSQIKKTTDLTTERLVHVDKCPRTASPHFTVSKISVPKTEH [R808C R808C], the mutation enrichment score is -1.

For TVEPLKTLLAEPEGNYPQSSTEPPMHSYLTSVAEEVLSPKE [I3901T I3901T], the mutation enrichment score stood at 1.5.

Take SSTESSPQGSPEPLVLHEETAPTTSSDSEEEQEDEEEIDVV [P245A P245A]: the mutation enrichment score was -2.

SPVHMMGTGIGRIEASPQRSHSSSTSSDHGNFMMPPVGPQA [R461H R461H]: the mutation enrichment score came to 4.

In the case of QLGSKSTSHSGQDTEEAGSSVSTLERSLAARRAPRAKLMIP [M1217V M1217V], the mutation enrichment score is -3.9.

As to KVKKGGGGAGTATESAPGPSVQSVAPIPQPPAESESGSESE [G22V G22V], the mutation enrichment score was 3.4.

On to NLDLDSIIAEVKAQYEEIANSSRTEAESWYQTKYEELQQTA [R352S R352S], for which the mutation enrichment score stood at 2.

With PAKQEPKPFDRLQQLLPASQFTQLPCSSSPQETTQSRPMPP [S1431F S1431F], the mutation enrichment score is -2.

In the case of PAKQEPKPFDRLQQLLPASQYTQLPCSSSPQETTQSRPMPP [S1431Y S1431Y], the mutation enrichment score was -2.

In the case of NRPFPGNMSSMTPSSPGMSQEGGPGMGPPMPTVNRKAQEAA [Q913E Q913E], the mutation enrichment score came to 1.9.

In the case of SISVISSSSYSYHHPSSAGVNLGASAVAGSSGSTQSGQTKT [D482N D482N], the mutation enrichment score is -0.54.

As for SDDCSKNTSPTTQPTASGAGGPVMTGAGESTNPENSELKYS [A543G A543G], the mutation enrichment score was determined as 1.

In the case of GASKALNVTVDVQSPACTSYHMTPQGHRAPPKINPDNYGMD [Q805H Q805H], the mutation enrichment score was -2.7.

PSDPTDRAEVEKDSGHGSTSMDSEGFSIPDTGSHCSSEYAA [V501M V501M]: the mutation enrichment score turned out to be 3.

Turning to SCSADLKDILSEASTMQLLQRQQQEAVSEGSSSGRAREASG [Q196R Q196R], the mutation enrichment score was -3.

In the case of HMKVHESSSQGSQPSPAASSRYESSTPPTIVSPSTDNPTTS [G400R G400R], the mutation enrichment score is 1.

Regarding PKPIMDRWENQGSPQTSLSATAIPQNLPFPPALHRSSFPDS [P711T P711T], the mutation enrichment score was -1.

As to YEKKIFEYETQRRRLSPPSSFAASSYSFSDLNSTRGDADMY [S54F S54F], the mutation enrichment score was -2.3.

For NQQGAHSALSSASTSSHNLQCIFNIGSRGPLPLSSQHRGDA [S85C S85C], the mutation enrichment score worked out at 0.

On to PQQYGIQYSASYSQQTGPQQLQQFQGYGQQPTSQAPAPAFS [P285L P285L], for which the mutation enrichment score was 3.1.

On to SSSDSGIATGSHSSYSSSLSFYAGSSLDVWRATDELGSLLS [S354F S354F], for which the mutation enrichment score was -2.2.

APMPGDCPAAGTYSYAQVSDNAGPPEPPAGPMHPRLGPEPA [Y259N Y259N]: the mutation enrichment score worked out at 0.

Turning to KGKKKRGSSLGGTGAAEGPACGFMVVAGGSGSGNCGEVASG [G332C G332C], the mutation enrichment score was -2.2.

Staying with this test, now noted: number of wild-type / mutant comparisons summed (bounds the score): 15; paper call: diminished; wild-type window: ….
SSSQSQGISSSSTSTMPNSSKSSHSSSGTLSSLETVSTQEL [Q51K Q51K]: the mutation enrichment score is -6.

The test is the same for the next values; noted with them: number of wild-type / mutant comparisons summed (bounds the score): 15; paper call: no_effect; wild-type window: ….
In the case of ESQQESTLWEMQSDSVSSSFKPTMSATTTVVGEQISKVIIT [E3016K E3016K], the mutation enrichment score is -4.7.

For SGSHLSNSFAEPSRSNGSMVLHSSSPYVVYPSDKPFLNSDL [R30L R30L], the mutation enrichment score is -4.

On to SGSHLSNSFAEPSRSNGSMVPHSSSPYVVYPSDKPFLNSDL [R30P R30P], for which the mutation enrichment score was -3.

Turning to LGSDFSLVMESSPGATGSFTCEAVELVPAGAPTQAAWRKSH [Y462C Y462C], the mutation enrichment score was -1.9.

For CGTCGQPADKASASGSGAQVCGPISSGSSASSVTVTRSYRS [G608C G608C], the mutation enrichment score stood at 2.

With KTSPAREVSSESGTSGQFTPASSTSVPTIASSSAPVSIWSP [P134A P134A], the mutation enrichment score worked out at 3.6.

On to NCSPNRQKPVVDHSVRINSVRSTASSSQPLLVHDDV [G961R G961R], for which the mutation enrichment score was -5.6.

For the molecule NCSPNRQKPVVDHSVRINSVSSTASSSQPLLVHDDV [G961S G961S], the mutation enrichment score was -3.8.

Regarding EPDRKAAVSHWQQQSYLDSGSHSGATTTAPSLSGKGNPEEE [I35S I35S], the mutation enrichment score was found to be 4.

SNLVSPTNLSQFNLPGPSMMHSNSIPAQDSSFDLYDDSQLC [R1498H R1498H]: the mutation enrichment score was found to be 1.

For PQSPAGYMPYSHPSSYTTHPEMQQASVSSPIVAGGLRNIHD [Q200E Q200E], the mutation enrichment score was determined as 1.9.

For the origin of these results see the supplement of paper PMC11369174, “Proteome-scale characterisation of motif-based interactome rewiring by disease mutations” (Molecular Systems Biology, 2024).
